Data as given in paper PMC6919601, “Identification of Plasmodium dipeptidyl aminopeptidase allosteric inhibitors by high throughput screening” (PLoS ONE, 2019).
About 230 (0.21%) of roughly 110,000 compounds showed an effect of 50% or more. This is one part of the list.

Biological target: DPAP1 (Plasmodium falciparum, UniProt Q8IIJ9)
Assay: primary screen, percent inhibition; read by cleavage of a fluorogenic dipeptide substrate; higher = more effect of the substance
Parameters: species or system P. falciparum D10 trophozoite lysates; single well
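Note: 30 min substrate incubation versus DMSO and 10 µM JCP410 controls.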

Chain of DPAP1 (Q8IIJ9 whole entry, looked up): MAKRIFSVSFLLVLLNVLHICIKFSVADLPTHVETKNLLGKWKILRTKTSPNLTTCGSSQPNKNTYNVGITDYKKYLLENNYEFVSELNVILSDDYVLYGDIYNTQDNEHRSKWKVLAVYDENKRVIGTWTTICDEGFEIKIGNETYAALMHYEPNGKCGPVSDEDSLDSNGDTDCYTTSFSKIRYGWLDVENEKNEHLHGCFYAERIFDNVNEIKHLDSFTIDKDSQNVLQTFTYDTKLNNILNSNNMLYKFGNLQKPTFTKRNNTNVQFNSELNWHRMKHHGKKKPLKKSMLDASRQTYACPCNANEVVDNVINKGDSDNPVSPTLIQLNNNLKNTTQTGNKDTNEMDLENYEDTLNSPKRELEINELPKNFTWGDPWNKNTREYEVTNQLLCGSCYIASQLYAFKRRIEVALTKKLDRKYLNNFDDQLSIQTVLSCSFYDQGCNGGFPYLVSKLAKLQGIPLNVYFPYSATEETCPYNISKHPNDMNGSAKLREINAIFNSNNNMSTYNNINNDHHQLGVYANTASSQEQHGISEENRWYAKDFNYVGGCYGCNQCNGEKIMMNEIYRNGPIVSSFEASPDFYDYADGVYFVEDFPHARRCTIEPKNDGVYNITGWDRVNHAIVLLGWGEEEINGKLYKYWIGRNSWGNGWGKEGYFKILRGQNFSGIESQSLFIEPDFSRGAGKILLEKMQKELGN

Question: For COc1cccc(C(=O)Nc2c3c(nn2-c2cccc(Cl)c2)CS(=O)(=O)C3)c1, which “% Inhibition @ 10 uM” value is on record?
Answer: 6.04%

Question: Nc1ccccc1/C=C1/CCCc2cc3ccccc3nc21 was tested. Which “% Inhibition @ 10 uM” value did it give?
Answer: 3.15%

Question: How did the “% Inhibition @ 10 uM” value turn out when COc1ccc(C2=C(C)C(c3cccs3)c3ccccc3O2)cc1 (centres unmarked) was run?
Answer: 4.18%

Question: Which “% Inhibition @ 10 uM” value does the source give for CCn1cc(C(=O)O)c(=O)c2cc(OC)ccc21 here?
Answer: -8.76%

Question: CSc1nsc(SC)c1C(=O)N1CCN(S(=O)(=O)c2ccc(C)cc2)C1C(C)C (centres unmarked) was tested. Which “% Inhibition @ 10 uM” value did it give?
Answer: 8.01%

Question: For Cc1ccccc1Cn1nc(C)c(NC(=O)c2cc3nc(C(F)F)cc(C(F)F)n3n2)c1C, which “% Inhibition @ 10 uM” value is on record?
Answer: -1.42%

Question: Which “% Inhibition @ 10 uM” value does the source give for COc1cc(/C=C2/C(=N)N3OC(C)=CC3=NC2=O)ccc1OCCCOc1ccc(C)cc1C here?
Answer: -1.43%

Question: Which “% Inhibition @ 10 uM” value does the source give for O=C(c1cc(-c2ccc(O)cc2)on1)N1CCN(Cc2ccccc2)CC1 here?
Answer: 6.87%

Question: With CCCSCCCn1cnc2c3ccccc3nc-2c1O as the compound, how does the “% Inhibition @ 10 uM” value read?
Answer: 3.24%

Question: OC1(c2ccc(Br)cc2)CCN(Cc2c(F)cccc2F)CC1 was tested. Which “% Inhibition @ 10 uM” value did it give?
Answer: -5.65%

Question: Cc1ccc(C(=O)O/N=C2\Sc3ccccc3C2=O)cc1 was tested. Which “% Inhibition @ 10 uM” value did it give?
Answer: -0.339%

Question: With Cc1ccccc1OCC(=O)N1CCc2ccccc21 as the compound, how does the “% Inhibition @ 10 uM” value read?
Answer: -1.38%

Question: With CCOc1ccc(NC(=O)CN(c2ccc(Cl)cc2)S(C)(=O)=O)cc1 as the compound, how does the “% Inhibition @ 10 uM” value read?
Answer: -1.43%

Question: Which “% Inhibition @ 10 uM” value does the source give for CC(C)C[C@H](NC(=O)OCc1ccc(-c2ccccc2)cc1)C(=O)NCC#N here?
Answer: 0.174%

Question: O=c1cc2nc(-c3ccccc3)nc(SCCCOc3ccccc3)n2[nH]1 was tested. Which “% Inhibition @ 10 uM” value did it give?
Answer: -5.72%

Question: With CC1SC2(C(=O)Nc3ccccc32)N(c2cccc(F)c2)C1=O (centres unmarked) as the compound, how does the “% Inhibition @ 10 uM” value read?
Answer: 2.09%

Question: For CC(C)CNC(=O)c1ccc(C2SCC(=O)N2CCc2ccccc2)cc1 (centres unmarked), which “% Inhibition @ 10 uM” value is on record?
Answer: 0.475%

Question: Which “% Inhibition @ 10 uM” value does the source give for CC1CCCCN1CCNC(=O)C1CCCN(c2ncnc3c2nc2n3CCCCC2)C1 (centres unmarked) here?
Answer: -1.96%

Question: With CCN(C(C)=O)C1=C(O)C(=O)c2ccccc2C1=O as the compound, how does the “% Inhibition @ 10 uM” value read?
Answer: -0.597%

Question: Cc1ccn2c(=O)c(C(=O)NCc3ccccc3)cnc2c1 was tested. Which “% Inhibition @ 10 uM” value did it give?
Answer: 0.0579%

Question: How did the “% Inhibition @ 10 uM” value turn out when Cc1cc(C)c2c(-n3cccc3)c(C(=O)N3CCc4ccccc4C3)sc2n1 was run?
Answer: 0.623%

Question: Which “% Inhibition @ 10 uM” value does the source give for CC(C)C(NS(=O)(=O)c1cccs1)C(=O)NC1CCCc2ccccc21 (centres unmarked) here?
Answer: 2.65%

Question: Which “% Inhibition @ 10 uM” value does the source give for CC(C)NC(=O)CN(c1ccccc1Cl)S(=O)(=O)c1ccccc1 here?
Answer: -1.61%

Question: Which “% Inhibition @ 10 uM” value does the source give for COc1ccc(C(C)=O)cc1N1C(=O)C2C3C=CC(CO)(O3)C2C1=O (centres unmarked) here?
Answer: -2.03%

Question: COc1ccc2nc(SCCc3ccccc3)nc(C)c2c1 was tested. Which “% Inhibition @ 10 uM” value did it give?
Answer: 2.26%

Question: With O=C(O)CCNc1c(C(=O)O)cnc2ccccc12 as the compound, how does the “% Inhibition @ 10 uM” value read?
Answer: -7.35%

Question: For Cc1cnn(-c2nc(-c3ccccc3)cc(-c3ccc(F)cc3)n2)c1, which “% Inhibition @ 10 uM” value is on record?
Answer: 2.65%

Question: For CCN1CCc2nc3sc(C(=O)N4CCc5ccccc5C4)c(N)c3cc2C1, which “% Inhibition @ 10 uM” value is on record?
Answer: -0.222%

Question: How did the “% Inhibition @ 10 uM” value turn out when CCOCCCN(Cc1ccco1)C(=O)c1cc2c(s1)-c1ccccc1S(=O)(=O)C2 was run?
Answer: -2.45%

Question: For CSc1ccc(CCNC(=O)C2CCCN(S(=O)(=O)N3CCC4(CC3)OCCO4)C2)cc1 (centres unmarked), which “% Inhibition @ 10 uM” value is on record?
Answer: -7.21%

Question: With O=C(Cc1ccc(-c2ccccc2)cc1)Nc1ccc(F)cc1F as the compound, how does the “% Inhibition @ 10 uM” value read?
Answer: -6.01%

Question: Which “% Inhibition @ 10 uM” value does the source give for O=[N+]([O-])c1ccc(S(=O)(=O)N2CCc3ccccc3C2)cc1 here?
Answer: -0.351%

Question: With Cc1nc(NC(=O)c2ccc(Cl)c(Cl)c2)sc1C(=O)N(C)C as the compound, how does the “% Inhibition @ 10 uM” value read?
Answer: 3.9%

Question: For Cc1ccc(N2CCN(S(=O)(=O)N3CCCCC3)CC2)cc1Cl, which “% Inhibition @ 10 uM” value is on record?
Answer: -3.25%

Question: How did the “% Inhibition @ 10 uM” value turn out when Cc1ccccc1C(O)(Cc1ccccc1)C1CN2CCC1CC2 (centres unmarked) was run?
Answer: -2.99%

Question: For Cc1ccc(OCC(=O)Nc2nccs2)c(Br)c1, which “% Inhibition @ 10 uM” value is on record?
Answer: 4.35%

Question: With CCNC(=O)c1snc(Nc2ncc(C)o2)c1N as the compound, how does the “% Inhibition @ 10 uM” value read?
Answer: -11.4%

Question: With CN(C(=O)c1ccoc1)c1ccc2ccccc2c1 as the compound, how does the “% Inhibition @ 10 uM” value read?
Answer: -1.99%

Question: Nc1ccc(Oc2ccc(Cl)cc2)cc1 was tested. Which “% Inhibition @ 10 uM” value did it give?
Answer: -9.91%

Question: With CC1CCN(S(=O)(=O)c2ccc(NS(=O)(=O)c3ccc(Cl)cc3)cc2)CC1 as the compound, how does the “% Inhibition @ 10 uM” value read?
Answer: 10.5%

Question: How did the “% Inhibition @ 10 uM” value turn out when CC(=O)Nc1ccc(NC(=O)c2noc3c2COc2ccc(C)cc2-3)cn1 was run?
Answer: -5.92%

Question: With CCC(=O)Nc1sc2c(c1C(=O)Nc1ccccc1Cl)CCCC2 as the compound, how does the “% Inhibition @ 10 uM” value read?
Answer: 29.5%

Question: How did the “% Inhibition @ 10 uM” value turn out when CC(C)(C)C1CCC(N2CCCC(CO)C2)CC1 (centres unmarked) was run?
Answer: -1.21%

Question: For CC(C)OCCCNC(=O)C1c2ccccc2C(=O)N(C)C1c1cccs1 (centres unmarked), which “% Inhibition @ 10 uM” value is on record?
Answer: -7.1%

Question: COc1cc(CNC23CC4CC(C)(CC(C)(C4)C2)C3)ccc1OCC(=O)NC(C)(C)C was tested. Which “% Inhibition @ 10 uM” value did it give?
Answer: -7.9%

Question: CCOCCCNC(=O)c1cc(-c2cccnc2)nc2ccc(S(=O)(=O)N3CCC(C)CC3)cc12 was tested. Which “% Inhibition @ 10 uM” value did it give?
Answer: 0.718%

Question: How did the “% Inhibition @ 10 uM” value turn out when COc1cccc(S(=O)(=O)NCC(=O)N2CCCCC2C)c1 (centres unmarked) was run?
Answer: -0.95%

Question: Cc1cc2c(c(SCC(N)=O)n1)C(=O)OC2 was tested. Which “% Inhibition @ 10 uM” value did it give?
Answer: 0.9%

Question: For O=C(Nc1nnc(COc2ccccc2)s1)c1ccc(F)cc1, which “% Inhibition @ 10 uM” value is on record?
Answer: 5.94%

Question: Which “% Inhibition @ 10 uM” value does the source give for O=C(CN1C(=O)c2cccc3cccc(c23)C1=O)NCCCN1CCOCC1 here?
Answer: 4.22%

Question: For Clc1ccc(CN2CCN(Cc3ccccc3)CC2)c(Cl)c1, which “% Inhibition @ 10 uM” value is on record?
Answer: -3.56%

Question: Which “% Inhibition @ 10 uM” value does the source give for Cc1cccc(C)c1NC(=O)CN1C(=O)S/C(=C/c2ccc3c(c2)n(C)c(=O)n3C)C1=O here?
Answer: -0.0938%

Question: COc1cccc(C(=O)Nc2nc(-c3nnn(-c4cccc(F)c4)c3C)ns2)c1 was tested. Which “% Inhibition @ 10 uM” value did it give?
Answer: -4.94%

Question: For c1ccc(N2CCN(c3ccc4nncn4n3)CC2)nc1, which “% Inhibition @ 10 uM” value is on record?
Answer: -0.692%

Question: Which “% Inhibition @ 10 uM” value does the source give for COC(=O)c1c(C)oc2cc(Br)c(OCC(=O)c3ccc(OC)cc3)cc12 here?
Answer: -5.92%

Question: Which “% Inhibition @ 10 uM” value does the source give for CCNC(=O)CSc1nnc(C)c2c(C)n(-c3ccccc3)nc12 here?
Answer: 2.9%

Question: Which “% Inhibition @ 10 uM” value does the source give for CCOC(=O)c1nc(NCC(C)O)c2ccccc2n1 (centres unmarked) here?
Answer: -1.81%

Question: For CCN(CC)c1ccc(CN2CCOCC2)cc1, which “% Inhibition @ 10 uM” value is on record?
Answer: -0.0494%

Question: How did the “% Inhibition @ 10 uM” value turn out when Cc1c(C=O)c2ccccc2n1CC(=O)N1CCCCCC1 was run?
Answer: -0.703%

Question: Which “% Inhibition @ 10 uM” value does the source give for C=CCN(CC=C)C(=O)CSc1nc(C)cc(COC)c1C#N here?
Answer: -1.85%

Question: CN(C(=O)/C=C/c1ccccc1Cl)C1CCCCC1 was tested. Which “% Inhibition @ 10 uM” value did it give?
Answer: -0.569%

Question: How did the “% Inhibition @ 10 uM” value turn out when CCOc1ccc(OCc2cccc(C(=O)N3CCOCC3)c2)cc1 was run?
Answer: -5.85%

Question: Which “% Inhibition @ 10 uM” value does the source give for COc1ccc(S(=O)(=O)N2CCC(C(=O)N3CCCCCC3)CC2)cc1OC here?
Answer: -5.48%

Question: How did the “% Inhibition @ 10 uM” value turn out when O=C(CN1CCC2(CC1)OCCO2)c1ccc2cc[nH]c2c1 was run?
Answer: 3.96%

Question: Which “% Inhibition @ 10 uM” value does the source give for COCCNCc1c(C(=O)O)c(C)n(Cc2ccccc2F)c1C here?
Answer: -1.92%
